Assay results published in PMC4336329 (PLoS ONE, 2015).
About 14,000 (4.5%) of roughly 310,000 compounds showed an effect of 50% or more. Effects have a minus sign here. Some of the results follow.

The compounds below were run against human ether-à-go-go-related gene (hERG) potassium channel (human, UniProt Q12809) (assay: primary screen, population patch clamp on CHO cells stably expressing hERG).
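Note: peak tail current of the secondary pulse compared with the same well before compound.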

human ether-à-go-go-related gene (hERG) potassium channel, sequence (Q12809 whole entry, looked up): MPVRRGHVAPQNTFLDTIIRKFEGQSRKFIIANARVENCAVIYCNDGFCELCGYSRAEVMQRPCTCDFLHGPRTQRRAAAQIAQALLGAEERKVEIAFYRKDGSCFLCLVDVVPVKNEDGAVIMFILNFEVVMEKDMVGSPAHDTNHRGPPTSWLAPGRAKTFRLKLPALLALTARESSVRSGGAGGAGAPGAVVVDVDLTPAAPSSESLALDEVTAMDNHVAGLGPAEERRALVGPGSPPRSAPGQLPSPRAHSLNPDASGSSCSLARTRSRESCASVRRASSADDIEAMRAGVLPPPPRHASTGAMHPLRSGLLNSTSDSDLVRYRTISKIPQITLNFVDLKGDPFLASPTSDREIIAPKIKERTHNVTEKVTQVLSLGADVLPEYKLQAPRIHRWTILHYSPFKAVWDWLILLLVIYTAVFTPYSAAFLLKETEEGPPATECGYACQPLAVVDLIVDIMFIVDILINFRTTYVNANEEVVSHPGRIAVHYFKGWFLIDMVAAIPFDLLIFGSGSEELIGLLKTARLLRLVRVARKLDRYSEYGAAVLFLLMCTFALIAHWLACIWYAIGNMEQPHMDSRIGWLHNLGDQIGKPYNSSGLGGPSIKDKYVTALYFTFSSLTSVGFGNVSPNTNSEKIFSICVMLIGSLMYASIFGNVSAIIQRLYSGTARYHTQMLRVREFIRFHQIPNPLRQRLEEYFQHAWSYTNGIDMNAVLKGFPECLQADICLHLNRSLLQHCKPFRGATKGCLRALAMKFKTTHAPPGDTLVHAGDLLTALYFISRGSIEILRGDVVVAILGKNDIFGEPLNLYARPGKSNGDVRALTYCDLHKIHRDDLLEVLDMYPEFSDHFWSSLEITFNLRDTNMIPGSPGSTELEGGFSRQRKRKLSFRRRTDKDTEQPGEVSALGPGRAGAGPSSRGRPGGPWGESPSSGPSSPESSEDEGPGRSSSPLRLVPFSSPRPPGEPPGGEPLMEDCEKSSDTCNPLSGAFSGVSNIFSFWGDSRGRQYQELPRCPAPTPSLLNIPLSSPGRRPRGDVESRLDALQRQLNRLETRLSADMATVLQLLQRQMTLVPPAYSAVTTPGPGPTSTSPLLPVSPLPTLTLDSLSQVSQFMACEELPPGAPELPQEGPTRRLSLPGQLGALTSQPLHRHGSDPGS

SMILES	hERG current change (%, negative = inhibition) at 10uM [%]
CCC1CN(C(=O)N2CCC(C(=O)Nc3ccccc3OC)CC2)c2ccccc2O1 (centres unmarked)	4.54
O=C(CCc1ccccc1)N/N=C\c1cc2c(cc1Br)OCO2	5.19
Nc1cccc2cc(-c3ccccc3)oc12	-13.1
O=c1[nH]cc([N+](=O)[O-])cc1Br	2.05
CCOC(=O)C(NC(=O)NC1CCCCC1)(c1ccccc1)C(F)(F)F (centres unmarked)	-3.51
O=C(CSc1ccc2nnc(-c3ccccn3)n2n1)Nc1nccs1	-27.6
O.OC[C@H]1O[C@H](OC[C@H]2O[C@H](OC[C@H]3O[C@H](O[C@]4(CO)O[C@H](CO)[C@@H](O)[C@@H]4O)[C@H](O)[C@@H](O)[C@@H]3O)[C@H](O)[C@@H](O)[C@H]2O)[C@H](O)[C@@H](O)[C@H]1O	15.6
Cc1cccnc1NC(=O)c1ccc(S(=O)(=O)N2CC(C)OC(C)C2)cc1 (centres unmarked)	-1.37
CC1CCN(C(=O)c2ccccc2NS(=O)(=O)c2ccccc2)CC1	8.52
COc1ccc(OC)c(NC(=O)c2nc(S(=O)(=O)Cc3ccccc3)ncc2Cl)c1	8.43
Cc1cc(N2CCC(C)CC2)nc(-c2ccccc2O)n1	4.32
OC(CNc1nc(C(F)(F)F)nc2ccccc12)c1ccccc1 (centres unmarked)	-17
CC(C)=CCC/C(C)=C/C=N/NC(=O)c1ccccc1[N+](=O)[O-]	-4.43
Cc1cnc(C(=O)OCC(=O)N2CCN(S(=O)(=O)c3ccc(Cl)cc3)CC2)cn1	4.81
COc1cc2nc(CN3CCOCC3)n(CC(=O)N3CCCCCC3)c(=O)c2cc1OC	9.73
N#CC1(NC(=O)COc2cc(F)ccc2[N+](=O)[O-])CCCCC1	-0.195
Cc1ccc(S(=O)(=O)N2CCN(C(=O)CCCOc3cccc(C)c3)CC2)cc1	9.25
O=c1c2ccccc2nc(-c2ccc(Cl)cc2Cl)n1CCCn1ccnc1	-34.1
C/C(N)=C(/C#N)C(=O)CSc1nc2scc(-c3ccccc3)c2c(=O)n1C	18.6
O=C(NCc1ccc(Cl)cc1)C1CCCCN1S(=O)(=O)c1ccccc1 (centres unmarked)	-29.5
O=C(CN1CCCCCCC1)Nc1ccc(Cl)cc1Cl	35.9

SMILES	hERG current change (%, negative = inhibition) at 10uM [%]
CCOC(=O)C1=C(C)NC(SCC(=O)OC)=C(C#N)C1c1ccc(C(=O)OC)cc1 (centres unmarked)	-23.4
CCn1c(SCc2ccc(Cl)cc2)nnc1-c1ccccc1	-44.4
CO[C@H]1C=CO[C@@]2(C)Oc3c(C)c(O)c4c(O)c(c5c(c4c3C2=O)NC2(CCN(CC(C)C)CC2)N=5)=NC(=O)C(C)=CC=C[C@H](C)[C@H](O)[C@@H](C)[C@@H](O)[C@@H](C)[C@H](OC(C)=O)[C@@H]1C	6.88
N#Cc1cccc(NC(=O)CSc2nnc(C3CC3)n2C2CC2)c1	-52.4
Cc1ccc(C2=C/C(=C/c3cccnc3)C(=O)O2)c(C)c1	16.6
O=C(O)CCc1ccc(-c2ccc(F)cc2)n1CC(=O)O	-6.85
CCOC(=O)[C@@H]1[C@H]2COc3cc(OC)ccc3[C@@H]2N2C(=O)N(c3cccc(Cl)c3)C(=O)[C@]12C	19.9
COc1cc2c(cc1OC)C(C1C(=O)CC(C)CC1=O)N(C(=O)CCl)CC2 (centres unmarked)	8.09
O=C1COc2ccc(C(=O)c3ccccc3C(=O)O)cc2N1	18.8
Cc1ccc(Cl)cc1N1CCN(C(=O)C2CCN(S(=O)(=O)c3c(C)nn(C)c3C)CC2)CC1	-12.5
CNC(=O)CSc1ncnc2c1cnn2-c1ccccc1	2.29
CN1CCN(c2nc(-c3ccc(Cl)cc3Cl)nc3ccccc23)CC1	-73.9
Cc1cc(O)ccc1C1(c2ccc(O)cc2C)OC(=O)c2ccccc21	-30.5
Cc1ccc(NC(=O)c2ccc(CSc3nccc(C)n3)cc2)cc1	-2.64
CN(C)CCCN(C(=O)COc1ccccc1)c1nc2cc3c(cc2s1)OCCO3	-45
COC(=O)c1ccc(Cn2cnc3c(cnn3-c3ccc(F)cc3)c2=O)o1	-8.65
CC1(C)SC(=S)N(/N=C/c2ccc(O)cc2)C1N(O)C(=O)Nc1ccc([N+](=O)[O-])cc1 (centres unmarked)	-10.2
COc1c(O)cc2oc(-c3ccc(O)c(O)c3)cc(=O)c2c1O	10.6
O=C(O)CN1C(=O)/C(=C\c2cc(Br)ccc2OCc2ccc(Cl)cc2Cl)SC1=S	15.9
CCOC(=O)c1c(NC(=O)c2ccccc2C(=O)O)sc2c1CCC2	-1.15
Cn1nc(C(=O)N2CCN(c3ccc(F)cc3)CC2)c2c1-c1ccccc1S(=O)(=O)C2	-54.3

SMILES	hERG current change (%, negative = inhibition) at 10uM [%]
C=CCC1C=C(C)CC(CC=C)N1 (centres unmarked)	2.67
O=C(O)c1cccc2c1C(=O)c1ccc(N3CCCC3)cc1S2(=O)=O	9.94
COc1cc(S(=O)(=O)N2CCN(C(=O)c3ccco3)CC2)ccc1Cl	-1.02
COCc1c(C(=O)N2CCN(Cc3c(F)cccc3Cl)CC2)oc2ccccc12	-12.2
CSc1ccccc1NC(=O)CN(C)Cc1cc(=O)n2ccsc2n1	-47.9
CS(=O)(=O)c1sc2nc(-c3cccs3)cc(-c3ccccc3)c2c1N	15.8
CC1CCc2nn(CC(=O)NCc3ccco3)cc2C1 (centres unmarked)	-0.548
CCn1c(=O)cc(OCC(=O)NCCCN2CC(C)CC(C)C2)c2ccccc21 (centres unmarked)	-12.5
COc1ccc(NC(=O)Cn2nc(C(=O)O)c3ccccc3c2=O)cc1Cl	18.9
Oc1cc(NCc2cccnc2)ccc1-c1nc2ccccc2o1	17.1
COc1ccc(Cc2nnc(SCC(=O)N(c3ccccc3)C(C)C)n(N)c2=O)cc1	-16.8
CCOC(=O)Nc1ccc(C)cc1NC(=O)OCC	11.7
COc1cc(C(=O)N2CCN(c3ccccc3OC)CC2)c([N+](=O)[O-])cc1OC	18.5
O=C(O)C1=C[C@@H](C2CC2)C[C@@H](OCc2ccc(CO)cc2)O1	21.4
COc1ccc(CN2CSC(=S)N(Cc3ccc(OC)cc3)C2)cc1	2.37
COc1ccc2cnn(-c3ccccc3C)c(=O)c2c1OC	8.51
Cc1ccc(C)c(NC(=O)NCc2ccccn2)c1	13
COc1ccc(C(C)=O)cc1COC(=O)CCNS(=O)(=O)c1ccc(C)cc1	-32.9
CCN(CC(=O)Nc1ccccc1C(F)(F)F)C(=O)CSCC(=O)Nc1cc(C)on1	1.02
O=C(CSc1nnc(Cc2cccs2)n1CCc1ccccc1)N1CCCc2ccccc21	-24.1
O=C(NCc1ccncc1)C1CCN(S(=O)(=O)c2ccccc2)CC1	-8.83

SMILES	hERG current change (%, negative = inhibition) at 10uM [%]
CCC(C)NC(=O)C1c2ccccc2C(=O)N1Cc1ccc(F)cc1 (centres unmarked)	-7.66
CC(C)CN1C(=O)C(=Nc2cccnc2)c2ccccc21	8.8
CC(=O)NC(NC(=S)Nc1ccccc1Br)C(Cl)(Cl)Cl (centres unmarked)	9.71
O=C(Nc1ccccc1Cl)c1ccc(COc2ccc3c(c2)CCC3)cc1	23.7
Cc1ccc(C(=O)NNC(=S)NC(=O)c2ccc(Cl)cc2)cc1	7.16
COc1ccc2oc(=O)cc(C)c2c1	1.74
CN1C(=O)/C(=C/c2ccccc2OCc2cccc(F)c2)N(C)C1=S	6.02
CCOC(=O)c1[nH]ncc1CN1CCCC(C(=O)c2cccc(Cl)c2)C1 (centres unmarked)	-22.6
O=C(NC1CCCc2ccccc21)C1CCC(CNc2c(N3CCOCC3)c(=O)c2=O)CC1 (centres unmarked)	14.9
COc1ccc(OCC(=O)Nc2cc3c(cc2C(=O)O)OCCCO3)cc1	21.8
CN(CC(=O)Nc1ccc(F)c(Cl)c1)S(=O)(=O)c1ccc2c(c1)n(C)c(=O)c(=O)n2C	14.9
Cc1nc2c(N=Nc3ccccc3F)c(N)nn2c(N)c1C#N	11.3
COC(=O)[C@H](Cc1c[nH]c2ccccc12)NC(=O)CCCc1c[nH]c2ccccc12	-1.78
CCn1cc(CN2CCCC(C(=O)c3cccc(OC)c3)C2)c(C)n1 (centres unmarked)	-21.3
CCNC(=S)N(CCc1c(C)[nH]c2ccc(C)cc12)Cc1cccs1	11.4
O=C(Cn1c(=O)oc2ccccc21)Nc1cccc(Cl)c1	-6.06
CNC(=O)NNC(=O)c1onc(-c2c(Cl)cccc2Cl)c1C(=O)OC	10.6
Cc1cc(O)c(-c2ccno2)cc1Cl	13
Cc1c(NC(=O)/C=C/c2cn(-c3ccccc3)nc2-c2ccc(F)cc2)c(=O)n(-c2ccccc2)n1C	7.47
O=C(NCc1cccs1)c1cc(S(=O)(=O)N2CCOCC2)ccc1N1CCCC1	-32.5
